Some of the results follow.
Tests used:
Experiment in all cases: glycan array binding signal (z-score within array); higher = stronger binding
Settings in all cases: glycan notation: IUPAC condensed, linker removed
[1] = target: Gal(b1-3)GlcNAc(b1-6)[Gal(b1-3)]GalNAc
Procedure, shortened: (§1)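 The Consortium for Functional Glycomics database supplied 3228 glycan arrays, of which those lacking an available protein sequence were dropped. The binding signal, a within-array Z-score, was averaged across arrays of the same protein sequence and across linkers. Negative scores can be read as non-binding.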

[2] = target: Gal(b1-3)GlcNAc6S
Procedure, shortened: as §1

[3] = target: Gal(b1-3)[Fuc(a1-4)]GlcNAc
Procedure, shortened: as §1

[4] = target: Gal(b1-3)[Fuc(a1-4)]GlcNAc(b1-2)Man
Procedure, shortened: as §1

[5] = target: Gal(b1-3)[Fuc(a1-4)]GlcNAc(b1-2)Man(a1-3)[Gal(b1-3)[Fuc(a1-4)]GlcNAc(b1-2)Man(a1-6)]Man(b1-4)GlcNAc(b1-4)[Fuc(a1-6)]GlcNAc
Procedure, shortened: as §1

[6] = target: Gal(b1-3)[Fuc(a1-4)]GlcNAc(b1-3)Gal(b1-3)[Fuc(a1-4)]GlcNAc
Procedure, shortened: as §1

[7] = target: Gal(b1-3)[Fuc(a1-4)]GlcNAc(b1-3)Gal(b1-4)[Fuc(a1-3)]GlcNAc
Procedure, shortened: as §1

[8] = target: Gal(b1-3)[Fuc(a1-4)]GlcNAc(b1-6)GalNAc
Procedure, shortened: as §1

[9] = target: Gal(b1-3)[GlcNAc(b1-6)]GalNAc
Procedure, shortened: as §1

[10] = target: Gal(b1-3)[Neu5Ac(a2-6)]GalNAc
Procedure, shortened: as §1

[11] = target: Gal(b1-3)[Neu5Ac(a2-6)]GlcNAc(b1-4)Gal(b1-4)Glc
Procedure, shortened: as §1

[12] = target: Gal(b1-3)[Neu5Ac(b2-6)]GalNAc
Procedure, shortened: as §1

[13] = target: Gal(b1-4)Gal
Procedure, shortened: as §1

[14] = target: Gal(b1-4)GalNAc(a1-3)[Fuc(a1-2)]Gal(b1-4)GlcNAc
Procedure, shortened: as §1

[15] = target: Gal(b1-4)GalNAc(b1-3)[Fuc(a1-2)]Gal(b1-4)GlcNAc
Procedure, shortened: as §1

[16] = target: Gal(b1-4)Glc
Procedure, shortened: as §1

[17] = target: Gal(b1-4)Glc6S
Procedure, shortened: as §1

[18] = target: Gal(b1-4)GlcNAc
Procedure, shortened: as §1

[19] = target: Gal(b1-4)GlcNAc(a1-6)Gal(b1-4)GlcNAc
Procedure, shortened: as §1

[20] = target: Gal(b1-4)GlcNAc(b1-2)Man
Procedure, shortened: as §1

[21] = target: Gal(b1-4)GlcNAc(b1-2)Man(a1-3)Man(b1-4)GlcNAc(b1-4)GlcNAc
Procedure, shortened: as §1

[22] = target: Gal(b1-4)GlcNAc(b1-2)Man(a1-3)[Gal(b1-4)GlcNAc(b1-2)Man(a1-6)]Man(b1-4)GlcNAc(b1-4)GlcNAc
Procedure, shortened: as §1

[23] = target: Gal(b1-4)GlcNAc(b1-2)Man(a1-3)[Gal(b1-4)GlcNAc(b1-2)Man(a1-6)]Man(b1-4)GlcNAc(b1-4)[Fuc(a1-6)]GlcNAc
Procedure, shortened: as §1

[24] = target: Gal(b1-4)GlcNAc(b1-2)Man(a1-3)[Gal(b1-4)GlcNAc(b1-2)Man(a1-6)][Gal(b1-4)GlcNAc(b1-4)]Man(b1-4)GlcNAc(b1-4)[Fuc(a1-6)]GlcNAc
Procedure, shortened: as §1

[25] = target: Gal(b1-4)GlcNAc(b1-2)Man(a1-3)[Gal(b1-4)GlcNAc(b1-2)Man(a1-6)][GlcNAc(b1-4)]Man(b1-4)GlcNAc(b1-4)[Fuc(a1-6)]GlcNAc
Procedure, shortened: as §1

[26] = target: Gal(b1-4)GlcNAc(b1-2)Man(a1-3)[GlcNAc(b1-2)Man(a1-6)]Man(b1-4)GlcNAc(b1-4)GlcNAc
Procedure, shortened: as §1

[27] = target: Gal(b1-4)GlcNAc(b1-2)Man(a1-3)[GlcNAc(b1-4)][Gal(b1-4)GlcNAc(b1-2)Man(a1-6)]Man(b1-4)GlcNAc(b1-4)GlcNAc
Procedure, shortened: as §1

[28] = target: Gal(b1-4)GlcNAc(b1-2)Man(a1-3)[Man(a1-6)]Man(b1-4)GlcNAc(b1-4)GlcNAc
Procedure, shortened: as §1

[29] = target: Gal(b1-4)GlcNAc(b1-2)Man(a1-6)Man(b1-4)GlcNAc(b1-4)GlcNAc
Procedure, shortened: as §1

[30] = target: Gal(b1-4)GlcNAc(b1-2)Man(a1-6)[GlcNAc(b1-2)Man(a1-3)]Man(b1-4)GlcNAc(b1-4)GlcNAc
Procedure, shortened: as §1

[31] = target: Gal(b1-4)GlcNAc(b1-2)Man(a1-6)[Man(a1-3)]Man(b1-4)GlcNAc(b1-4)GlcNAc
Procedure, shortened: as §1

[32] = target: Gal(b1-4)GlcNAc(b1-2)[Gal(b1-4)GlcNAc(b1-4)]Man(a1-3)[Gal(b1-4)GlcNAc(b1-2)Man(a1-6)]Man(b1-4)GlcNAc(b1-4)GlcNAc
Procedure, shortened: as §1

[33] = target: Gal(b1-4)GlcNAc(b1-2)[Gal(b1-4)GlcNAc(b1-4)]Man(a1-3)[Gal(b1-4)GlcNAc(b1-2)[Gal(b1-4)GlcNAc(b1-6)]Man(a1-6)]Man(b1-4)GlcNAc(b1-4)GlcNAc
Procedure, shortened: as §1

[34] = target: Gal(b1-4)GlcNAc(b1-2)[Gal(b1-4)GlcNAc(b1-4)]Man(a1-3)[GlcNAc(b1-4)][Gal(b1-4)GlcNAc(b1-2)Man(a1-6)]Man(b1-4)GlcNAc(b1-4)GlcNAc
Procedure, shortened: as §1

[35] = target: Gal(b1-4)GlcNAc(b1-2)[Gal(b1-4)GlcNAc(b1-4)]Man(a1-3)[GlcNAc(b1-4)][Gal(b1-4)GlcNAc(b1-2)[Gal(b1-4)GlcNAc(b1-6)]Man(a1-6)]Man(b1-4)GlcNAc(b1-4)GlcNAc
Procedure, shortened: as §1

[36] = target: Gal(b1-4)GlcNAc(b1-2)[Gal(b1-4)GlcNAc(b1-6)]Man(a1-6)[Gal(b1-4)GlcNAc(b1-2)Man(a1-3)]Man(b1-4)GlcNAc(b1-4)GlcNAc
Procedure, shortened: as §1

[37] = target: Gal(b1-4)GlcNAc(b1-2)[Gal(b1-4)GlcNAc(b1-6)]Man(a1-6)[Gal(b1-4)GlcNAc(b1-2)Man(a1-3)]Man(b1-4)GlcNAc(b1-4)[Fuc(a1-6)]GlcNAc
Procedure, shortened: as §1

B1: Si Bti9 1b-HA (Solanum lycopersicum) (protein)
chain: MFESRPRSVLSLGVFVILVYLSSVPLPVNSQCNRGCDLALASFYVWRGSNLTLISEMFSTSIADIVSYNNRDNIPNQDSVIAGTRINIPFRCDCLNDGEVLGHAFPYRVKSGDTYDLVARNYSDLTTAQWMMKFNSYPENNIPNTVNLSVVVNCSCGNSDVSKDFGLFVTYPVRAEDNLTSVASAANVSEDIIRRYNPAAVSILDIGQGIIYIPGRDRNGNFPPLPTSTDGLSGGAKAPLFFNPAFLYKVVELKLAGRSRTSGYPYDVPDYAGYPYDVPDYALEVLFQ
What does the source list for B1?
glycan array binding signal (z-score) [1]: -0.205; glycan array binding signal (z-score) [2]: 0.447; glycan array binding signal (z-score) [3]: -0.408; glycan array binding signal (z-score) [4]: 0.574; glycan array binding signal (z-score) [5]: 0.058; glycan array binding signal (z-score) [6]: -0.373; glycan array binding signal (z-score) [7]: -0.223; glycan array binding signal (z-score) [8]: 0.032; glycan array binding signal (z-score) [9]: -0.308; glycan array binding signal (z-score) [10]: -0.343; glycan array binding signal (z-score) [11]: -0.134; glycan array binding signal (z-score) [12]: -0.441; glycan array binding signal (z-score) [13]: -0.003; glycan array binding signal (z-score) [14]: -0.332; glycan array binding signal (z-score) [15]: -0.319; glycan array binding signal (z-score) [16]: -0.127; glycan array binding signal (z-score) [17]: 0.274; glycan array binding signal (z-score) [18]: -0.203; glycan array binding signal (z-score) [19]: -0.607; glycan array binding signal (z-score) [20]: 0.344; glycan array binding signal (z-score) [21]: 0.174; glycan array binding signal (z-score) [22]: -0.288; glycan array binding signal (z-score) [23]: -0.064; glycan array binding signal (z-score) [24]: -0.382; glycan array binding signal (z-score) [25]: -0.589; glycan array binding signal (z-score) [26]: -0.076; glycan array binding signal (z-score) [27]: -0.173; glycan array binding signal (z-score) [28]: -0.152; glycan array binding signal (z-score) [29]: -0.057; glycan array binding signal (z-score) [30]: -0.058; glycan array binding signal (z-score) [31]: -0.322; glycan array binding signal (z-score) [32]: -0.324; glycan array binding signal (z-score) [33]: -0.538; glycan array binding signal (z-score) [34]: -0.317; glycan array binding signal (z-score) [35]: -0.345; glycan array binding signal (z-score) [36]: -0.425; glycan array binding signal (z-score) [37]: -0.297

Source: the supplement of paper PMC8728848
